Measured values reported in the supplement of paper PMC4967469.
Lines with a small IC50 respond at low doses; a limit (>, <) means that the fit lies beyond the doses tested. The AUC spans the tested range (256-fold, ending at the top dose) of the same fit; values near 1 show little effect. For part of these data: Where the top dose is marked as inferred, it is not printed in the source and was worked back from the curve model.

How the values were obtained:
Experiment in all cases: Viability of human cancer cell lines after 72 h of drug (GDSC screen)
[1] = compound: CN(C)C/C=C/C(=O)Nc1ccc(C(=O)Nc2cccc(Nc3nccc(-c4cccnc4)n3)c2)cc1 [ZG-10]; settings: top dose 10 µM; top dose inferred
Experimental: (§1)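 Human cancer cell lines in 384-well plates, medium with 10% serum, drug for 72 h over a 256-fold dose range (nine 2-fold or five 4-fold steps up to the top dose). Adherent lines were fixed and stained with the nucleic acid dye Syto60, suspension lines read with resazurin; signal relative to control wells, capped at 0 and 100%. One two-parameter sigmoid per drug and line, fitted in a mixed model over all curves with the slope shared within a line.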

[2] = compound: Cn1nnc2c(C(N)=O)ncn2c1=O [Temozolomide]; settings: top dose 30 µM
Experimental: as §1

[3] = compound: O=C(NOCC1CC1)c1ccc(F)c(F)c1Nc1ccc(I)cc1Cl [CI-1040]; settings: top dose 10 µM; top dose inferred
Experimental: as §1

[4] = compound: Oc1ccc2ccccc2c1SSc1c(O)ccc2ccccc12 [IPA-3]; settings: top dose 32 µM; top dose inferred
Experimental: as §1

[5] = compound: CN1CCc2c(c3ccccc3n2Cc2ccc(C(=O)NO)cc2)C1 [Tubastatin A]; settings: top dose 20 µM
Experimental: as §1

[6] = compound: COc1cc2c(Oc3ccc(NC(=O)C4(C(=O)Nc5ccc(F)cc5)CC4)cc3F)ccnc2cc1OCCCN1CCOCC1 [XL-880]; settings: top dose 5.12 µM; top dose inferred
Experimental: as §1

Cell Line | AUC [1] | IC50 [1] [µM] | AUC [2] | IC50 [2] [µM] | AUC [3] | IC50 [3] [µM] | AUC [4] | IC50 [4] [µM] | AUC [5] | IC50 [5] [µM] | AUC [6] | IC50 [6] [µM]
STS-0421 (soft tissue, adherent) | 0.613 | 1.35 | 0.97 | > 30 | 0.939 | > 10 | 0.954 | > 32 | – | – | – | –
H2595 (mesothelioma, adherent) | 0.891 | > 10 | 0.978 | > 30 | 0.924 | > 10 | 0.981 | > 32 | 0.918 | > 20 | 0.887 | > 5.12
NCI-H2291 (lung adenocarcinoma, adherent) | 0.808 | 7.75 | 0.968 | > 30 | 0.602 | – | 0.968 | > 32 | 0.984 | > 20 | 0.984 | > 5.12
NCI-H1437 (lung adenocarcinoma, adherent) | 0.816 | 5.84 | 0.985 | > 30 | 0.543 | 0.821 | 0.957 | > 32 | 0.976 | > 20 | 0.767 | 1.98
CHSA8926 (chondrosarcoma, adherent) | 0.521 | 0.731 | 0.973 | > 30 | 0.935 | > 10 | 0.98 | > 32 | 0.976 | > 20 | 0.694 | 1.42
RERF-LC-MS (lung adenocarcinoma, adherent) | 0.922 | > 10 | 0.984 | > 30 | 0.817 | 5.78 | 0.879 | > 32 | 0.987 | > 20 | 0.501 | 0.322
PCI-4B (head and neck, adherent) | 0.7 | 2.2 | 0.981 | > 30 | 0.644 | 1.53 | 0.806 | 15.3 | 0.889 | > 20 | 0.639 | 0.758
SK-MEL-30 (melanoma, adherent) | 0.742 | 3.21 | 0.984 | > 30 | 0.817 | 5.99 | 0.833 | 22.2 | 0.904 | > 20 | 0.712 | 1.32
PL4 (pancreas, adherent) | 0.668 | 1.87 | 0.986 | > 30 | 0.857 | 8.56 | 0.982 | > 32 | 0.987 | > 20 | 0.598 | 0.601
TT2609-C02 (thyroid, adherent) | 0.862 | 9.47 | 0.985 | > 30 | 0.478 | 0.542 | 0.731 | 9.55 | 0.917 | > 20 | – | –
AsPC-1 (pancreas, adherent) | 0.913 | > 10 | 0.942 | > 30 | 0.744 | 5.31 | 0.878 | > 32 | 0.934 | > 20 | 0.738 | 2.54
RO82-W-1 (thyroid, adherent) | 0.659 | 1.97 | 0.973 | > 30 | 0.863 | > 10 | 0.965 | > 32 | 0.957 | > 20 | 0.751 | 2.12
SW1783 (glioma, adherent) | 0.845 | 6.18 | 0.989 | > 30 | 0.963 | > 10 | 0.86 | 22.6 | 0.991 | > 20 | 0.65 | 0.795
CAL-78 (chondrosarcoma, adherent) | 0.662 | 1.89 | 0.985 | > 30 | 0.977 | > 10 | 0.974 | > 32 | 0.975 | > 20 | 0.597 | 0.615
SW620 (large intestine, adherent) | 0.799 | 4.18 | 0.949 | > 30 | 0.562 | 0.901 | 0.731 | 8.28 | – | – | 0.666 | 0.874
H290 (mesothelioma, adherent) | 0.824 | 5.3 | 0.988 | > 30 | 0.878 | 8.66 | 0.852 | 21.6 | – | – | – | –
JHU-029 (head and neck, adherent) | 0.56 | 0.947 | 0.958 | > 30 | 0.767 | 4.55 | 0.715 | 9.46 | – | – | – | –
SCC90 (head and neck, adherent) | 0.733 | 3.89 | 0.961 | > 30 | 0.736 | 4.01 | 0.935 | > 32 | – | – | – | –
MKN28 (stomach, adherent) | 0.676 | 1.97 | – | – | 0.863 | 9.02 | 0.843 | 23.4 | 0.965 | > 20 | 0.687 | 1.09
HCC-78 (lung adenocarcinoma, adherent) | 0.748 | 3.72 | 0.98 | > 30 | 0.963 | > 10 | 0.927 | > 32 | 0.941 | > 20 | – | –
DMS-273 (small cell lung carcinoma, adherent) | 0.723 | 2.8 | – | – | 0.913 | > 10 | 0.856 | 28.2 | 0.954 | > 20 | 0.461 | 0.249
